In PubChem BioAssay AID1347417 (National Center for Advancing Translational Sciences (NCATS), 2020):
About 5,300 (4.4%) of roughly 120,000 compounds were called active. Inconclusive means that the source gave no clear call. Such entries were picked first, then a sample of the others. Calls come from the whole dose curve; as a rule, active = well fitted inhibition curve with a large enough effect; inconclusive = small, poorly fitted or top-dose-only effect; inactive = no such curve, though single readings can be large or run the other way. Potencies beside an inconclusive call are fits to weak or partial responses and may not hold up.

Test: qHTS Primary assay for Inhibitors of Plasmodium falciparum Dd2 growth in vitro; note: nearly all actives have a fitted effect of over 65% in size;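 for activity, negative = inhibition: plate controls were DMSO vehicle for no effect and reference drug for full effect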
Settings: P. falciparum Dd2 growth, SYBR Green, 72 h; activity, negative = inhibition: at 28.9 µM (top of the series) unless noted; series mostly up to 28.9 µM
Method in brief: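 Readout: SYBR Green fluorescence, 485 nm excitation, 535 nm emission, after ~16 h lysis at 37C. Before that, Dd2-infected red cells (2.5% hematocrit) grew 72 h with compound, 29 uM top final concentration.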
Potency is the fitted concentration of half-maximal effect; tags give direction and shape of the fitted curve.

SMILES | Potency | activity, negative = inhibition | outcome
CCOc1ccccc1C(=O)N1CCCN(C)c2ccccc21 | inconclusive: 17.8 µM [inhibitor, single point] |  | 
CC(C)c1ccc(NS(=O)(=O)c2ccc3[nH]cc(C(=O)NC4CCCC4)c(=O)c3c2)cc1 | inconclusive: 17.8 µM [inhibitor, partial curve, poor fit] |  | 
CS(=O)(=O)N[C@@H]1[C@@H](NC(=O)CCC2=NNC(=O)CC2)[C@H]2CCO[C@H]21 |  | inactive: -5.81% | 
COC(=O)[C@@H]1Cc2ncn(Cc3ccccc3)c2CN1S(=O)(=O)c1cccc(C(F)(F)F)c1 |  |  | inactive
O=C(C1CCC1)N1CCN(c2nnc3ccc(Cl)cn23)CC1 |  |  | inactive
CC[C@H]1CN(C(=O)c2cccnc2)CC[C@H]1CC(=O)N(C)CCC#N |  | inactive: 31.4% [at 44.1 µM] | 
CC(C)N1CCN(C(=O)C2Cn3cccc3C(=O)N2Cc2cccnc2)CC1 (stereo not drawn) | inconclusive: 10 µM [inhibitor, single point] |  | 
CCC(O)c1cc2n(n1)CCN(C(=O)c1nc(N)nc3c1CCCC3)C2 (stereo not drawn) |  | inactive: -17.3% | 
Cc1ccc(C(=O)N2CCCCCNC(=O)CC2c2ccccc2)s1 (stereo not drawn) |  | inactive: -12.2% | 
COc1ccc(Cn2c(C3CCN(C(=O)Cc4ccc(F)cc4)CC3)n[nH]c2=O)cc1 | inconclusive: 0.0708 µM [inhibitor, full curve, poor fit] |  | 
CCn1c(C)c(CN2CCc3nc(N4CCN(C)CC4)[nH]c(=O)c3CC2)c2ccccc21 |  | inactive: -20% [at 5.79 µM] | 
CCOC(=O)c1cnn(-c2ccc(OC)cc2)c1C1CCN(C(=O)OC(C)(C)C)CC1 | active: 7.94 µM |  | 
Fc1cccc(OC2CCNC2)c1 (stereo not drawn) | inconclusive: 8.91 µM [inhibitor, partial curve, poor fit] |  | 
Cc1ccccc1C(=O)N1CCC(c2nc3ccccc3s2)CC1 | active: 1.26 µM |  | 
COc1cccc(CCc2ccccc2C(=O)N2CC[C@](C)(O)[C@H](C)C2)c1 |  | inactive: -11.9% | 
COc1cc(NC(=O)c2nnn(Cc3ccc(F)cc3)c2N)cc(OC)c1 | inconclusive: 0.0316 µM [inhibitor, full curve, poor fit] |  | 
O=c1c2nc(OCc3ccc(F)cc3)ccc2ncn1C1CC1 | inconclusive: 14.1 µM [inhibitor, partial curve] |  | 
COCCn1nc2n(c1=O)CCN(Cc1sccc1C)CC2 |  | inactive: 26.9% | 
CCC(C)(C)C(=O)N1CCn2c(nnc2[C@@H]2C[C@@H](O)CN2Cc2ccccc2)C1 |  |  | inactive
O=C(CC1CCCCC1)N1CCC2(CC1)CC(N(Cc1ccc(F)cc1)C1CC1)CCO2 (stereo not drawn) | inconclusive: 1.78 µM [inhibitor, partial curve, poor fit] |  | 
Cc1ccsc1C(=O)NCCc1noc(-c2ccccc2)n1 |  |  | inactive
CCC(=O)N1CCc2nn(Cc3ccccc3)c(=O)n2CC1 | inconclusive: 1.78 µM [inhibitor, partial curve, poor fit] |  | 
CCOC(=O)c1cc(S(=O)(=O)NCc2ccccc2)[nH]n1 |  | inconclusive: -118% [inhibitor] [at 0.594 µM] | 

SMILES | Potency | activity, negative = inhibition | outcome
Cc1cccc(N(C)c2ccc3nnc(-c4cc(C#N)ccn4)n3n2)c1 | inconclusive: 14.1 µM [inhibitor, single point] |  | 
CC(C)(C)c1ccc(S(=O)(=O)NCc2ccc3c(c2)CCN3C(=O)c2ccccc2)cc1 | inconclusive: 17.8 µM [inhibitor, single point] |  | 
CCOc1ccc(CCNC(=O)CCc2cn(Cc3ccccc3F)c3ccccc23)cc1OCC | inconclusive: 12.6 µM [inhibitor, single point] |  | 
NCC1(N2CCOCC2)CCCCC1 |  | inconclusive: -36.3% [inhibitor] [at 44.1 µM] | 
O=C(Cc1ccccc1)NCC1CN(C(=O)Cc2cccc(Oc3ccccc3)c2)CC12CN(c1ccccc1)C2 (stereo not drawn) |  | inactive: -13.5% | 
Cc1noc(C)c1-c1cnc(Nc2ccc(Cl)cn2)c2c1CCO2 |  | inactive: -15.9% [at 44.1 µM] | 
CCOc1ccc(NC(=O)c2c(Nc3ccc(OC)cc3OC)sc(C(=O)c3ccc(Cl)cc3)c2N)cc1 | inconclusive: 15.8 µM [inhibitor, single point] |  | 
CCOc1ccc(NC(=O)CSc2nc(-c3ccc(OC)cc3)nc3c2Cc2c(CO)cnc(C)c2O3)cc1 | inconclusive: 4.47 µM [inhibitor, partial curve] |  | 
CCOC(=O)c1ccc(NC(=O)c2c(OC)cc(=O)n3c2CCCC3)cc1 | inconclusive: 3.98 µM [inhibitor, single point] |  | 
Cc1cc(C)cc(OCC(=O)c2ccc3c(c2)N(CC(=O)N2CCOCC2)C(=O)CO3)c1 |  | inactive: 8.76% | 
CN(C)C(=O)c1cnn2ncccc12 | inconclusive: 2 µM [inhibitor, partial curve, poor fit] |  | 
Cc1cnc(C2CCC2)n1C1CCCN(C(=O)CCCc2ccccc2)C1 (stereo not drawn) | inconclusive: 0.891 µM [inhibitor, full curve, poor fit] |  | 
O=C(Nc1ccccc1)OC[C@H]1C[C@@H]2CCN1C[C@@H]2c1cc(C2CCCC2)nc(-c2ccncc2)n1 | inconclusive: 0.794 µM [inhibitor, full curve, poor fit] |  | 
COc1ccc2c(c1)C1(CCN(C(=O)c3cccc(N(C)C)c3)C1)C(=O)N2C (stereo not drawn) | inconclusive: 14.1 µM [inhibitor, single point] |  | 
COc1cc(=O)n2c(c1C(=O)Nc1ccc(C(C)C)cc1)CCCC2 |  | inactive: -21.1% | 
CC(=O)N1CCC(c2nnc3n2CCNC3)CC1 |  | inactive: -10% [at 44.1 µM] | 
CC(C)CN1CCNc2cc(-c3ccccc3)ncc2C1 | inconclusive: 39.8 µM [inhibitor, single point] |  | 
Cc1oc2ccn(Cc3cccc(F)c3)c(=O)c2c1C(=O)N(C)Cc1ccccc1 |  |  | inactive
O=C(c1ccn[nH]1)N1CC=C(c2cnc3cnc(-c4ccccc4)cn23)CC1 | inconclusive: 4.47 µM [inhibitor, partial curve] |  | 
CCOc1cc(=O)n2c(c1C(=O)Nc1ccc(Br)cc1)CCCC2 | inconclusive: 3.55 µM [inhibitor, partial curve] |  | 
CCC1(O)CCC12CCN(C(=O)c1cnccc1C)CC2 (stereo not drawn) |  |  | inactive
CC(C)Cc1cn(CC2CCCN(C(=O)c3ccc4c(c3)CCO4)C2)nn1 (stereo not drawn) |  | inactive: -20.8% | 
COc1ccccc1C(=O)N[C@@H]1CN(c2ccccn2)C[C@H]1CN(C)C | inconclusive: 3.98 µM [inhibitor, partial curve, poor fit] |  | 

SMILES | Potency | activity, negative = inhibition | outcome
Cc1ccc(NC(=O)C2CCCN(c3nnc(C)c4c(C)n(-c5ccccc5)nc34)C2)c(Cl)c1 (stereo not drawn) |  | inconclusive: -35.4% [inhibitor] [at 5.79 µM] | 
CCC(=O)N1CCc2cc(Br)cc(S(=O)(=O)CCC(=O)N3CCN(c4cccc(C(F)(F)F)c4)CC3)c21 | inconclusive: 11.2 µM [inhibitor, partial curve, poor fit] |  | 
Cc1ccc(S(=O)(=O)Cc2ccc(C(=O)N3CCN(c4cccc(C)c4C)CC3)o2)cc1 |  | inactive: -10% | 
COc1ccccc1N1CCN([C@H]2[C@@H]3OC[C@@H](O3)[C@@H](NCc3ccccc3O)[C@@H]2O)CC1 | inconclusive: 2.51 µM [inhibitor, single point] |  | 
CC(=O)N1Cc2ccccc2CC2(CCCCN2Cc2ccccc2)C1 (stereo not drawn) | inconclusive: 8.91 µM [inhibitor, single point] |  | 
COc1ccc(C(=O)Nc2ccc3n(c2=O)C[C@H]2C[C@@H]3CN(C(=O)CCCC(=O)O)C2)cc1 |  | inactive: -13.7% | 
CC(=O)N1c2ccc(S(=O)(=O)NCC3CCC(C(=O)Nc4ccc(C)cc4)CC3)cc2CC1C (stereo not drawn) |  | inactive: -24.5% | 
CN(CCc1ccccn1)C(=O)CC1CCCN(c2cnn(CC3CC3)c(=O)c2)C1 (stereo not drawn) | inconclusive: 8.91 µM [inhibitor, partial curve, poor fit] |  | 
CCc1ccc(NC(=O)Cn2c(-c3ccc(F)cc3)nc(C)c(CCO)c2=O)cc1 | inconclusive: 1.12 µM [inhibitor, full curve, poor fit] |  | 
O=C(NC1CCCc2c1[nH]c1ccccc21)c1cccs1 (stereo not drawn) | inconclusive: 20 µM [inhibitor, partial curve, poor fit] |  | 
C[C@@H](c1ccccc1)N(C)C(=O)c1cc(Cn2cnc3ccccc32)[nH]n1 | inconclusive: 17.8 µM [inhibitor, partial curve, poor fit] |  | 
CNc1cc(C2CC(NS(=O)(=O)c3ccc(Cl)s3)C2)nc(N)n1 (stereo not drawn) | active: 7.94 µM |  | 
Cc1nn(-c2ccc(C(C)C)cc2)c(C)c1[C@@H]1C=C[C@@H](NCc2cccc(C#N)c2)C1 | active: 4.47 µM |  | 
CCn1ncc(N2CCCC(CC(=O)NCCN3CCCC3)C2)cc1=O (stereo not drawn) |  | inactive: 65.6% | 
COCC(=O)N[C@H]1C[C@@H](CO)N(Cc2cn[nH]c2-c2ccccc2)C1 | inconclusive: 0.112 µM [inhibitor, full curve] |  | 
O=C(c1[nH]ncc1Cl)N1CCOC(Cc2cccc(C(F)(F)F)c2)C1 (stereo not drawn) | inconclusive: 20 µM [inhibitor, single point] |  | 
Cc1ccc(Cl)cc1NC(=O)CCC(=O)N1CC(C)Sc2ccccc21 (stereo not drawn) | inconclusive: 17.8 µM [inhibitor, single point] |  | 
O=C1COc2ccc(N3CCCC3)nc2CN1Cc1ccc(C(F)(F)F)cc1 | inconclusive: 22.4 µM [inhibitor, single point] |  | 
COC(=O)c1ccc(CN2C(=O)[C@@H]3C[C@@H](O)CN3C3(CN(C(C)C)C3)C2=O)cc1 |  | inactive: 3.07% [at 44.1 µM] | 
Cc1nnnn1CCC(=O)N[C@@H]1COCC[C@@H]1OCc1cscn1 |  | inactive: -24.9% | 
COc1ccc(NC(=O)C2(C)CN(C)Cc3ccc(NCc4ccccc4)nc32)cc1 (stereo not drawn) | inconclusive: 31.6 µM [inhibitor, single point] |  | 
CN1c2cc(C(=O)Nc3cccc(C(F)(F)F)c3)ccc2C(=O)N2CCCC21 (stereo not drawn) | inconclusive: 2.82 µM [inhibitor, single point] |  | 
